Data reported in the supplement of paper PMC4604168 (melanoma cell lines).
The list shows a part of the results. Many values rest on one well or one pass, so single values are uncertain.

The compounds below were run on WM115 (assay: cell count relative to DMSO control; melanoma cells; higher = more viable cells). Details: library dose: standard library concentration; 72 h.
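Also: cells treated in 1,536-well plates, then fixed and DAPI-stained, with nuclei counted from automated high-throughput microscope images.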

**Q.** For CCCCCCCCc1ccc(CCC(N)(CO)CO)cc1 [fingolimod] + CS(=O)(=O)CCNCc1ccc(-c2ccc3ncnc(Nc4ccc(OCc5cccc(F)c5)c(Cl)c4)c3c2)o1 [lapatinib] (first compound 10 µM, partner dose 4 µM), which cell count is on record?
**A.** 9.49%

**Q.** Which cell count does the source give for CC(C)(C)c1cnc(CSc2cnc(NC(=O)C3CCNCC3)s2)o1 + CN(NC(=O)CC(=O)NN(C)C(=S)c1ccccc1)C(=S)c1ccccc1 [STA4783] (first compound 0.05 µM, partner dose 0.03 µM) here?
**A.** 10.2%

**Q.** For CCCCCCCCc1ccc(CCC(N)(CO)CO)cc1 [fingolimod] + COc1ccc(Cl)c(Nc2nc3ccccc3nc2NS(=O)(=O)c2cccc(NC(=O)C(C)(C)N)c2)c1 [XL147] (first compound 10 µM, partner dose 4 µM), which cell count is on record?
**A.** 21.6%

**Q.** With CCCCCCCCc1ccc(CCC(N)(CO)CO)cc1 [fingolimod] + C[C@@H]1CCN(C(=O)CC#N)C[C@@H]1N(C)c1ncnc2[nH]ccc12 [CP690550] (first compound 10 µM, partner dose 5 µM) as the compound, how does the cell count read?
**A.** 7.99%

**Q.** COc1cc2c(Oc3ccc4[nH]c(C)cc4c3F)ncnc2cc1OCCCN1CCCC1 [cediranib] + CCN(CC)CCCCNc1ncc2cc(-c3cc(OC)cc(OC)c3)c(NC(=O)NC(C)(C)C)nc2n1 [PD173074] (first compound 2 µM, partner dose 0.5 µM) was tested. Which cell count did it give?
**A.** 97.4%

**Q.** How did the cell count turn out when NC(=O)c1ccc(N(C(N)=O)c2c(F)cccc2F)nc1-c1ccc(F)cc1F + CN(C)S(=O)(=O)c1ccc2c(c1)/C(=C/c1cc3c([nH]1)CCCC3)C(=O)N2 [SU6656] (first compound 2 µM, partner dose 2 µM) was run?
**A.** 41.9%

**Q.** Which cell count does the source give for CCCCCCCCc1ccc(CCC(N)(CO)CO)cc1 [fingolimod] + COCC[n+]1c2c(n(Cc3cnccn3)c1C)C(=O)c1ccccc1C2=O [YM155] (first compound 10 µM, partner dose 0.002 µM) here?
**A.** 13.3%

**Q.** CC(C)(C)c1cnc(CSc2cnc(NC(=O)C3CCNCC3)s2)o1 + COc1ccc2c(c1)CCC1C2CCC2(C)C(NCCCCCCN3C(=O)C=CC3=O)CCC12 [U73122] (first compound 0.05 µM, partner dose 2 µM) was tested. Which cell count did it give?
**A.** 71.7%

**Q.** How did the cell count turn out when CC(C)(C)c1cnc(CSc2cnc(NC(=O)C3CCNCC3)s2)o1 + COc1ccc(COc2ccc(Cc3cnc(N)nc3N)cc2OC)cc1 [GW2580] (first compound 0.05 µM, partner dose 5 µM) was run?
**A.** 83.5%

What follows are compounds tested on WM1716 in the same assay as above. Details: library dose: standard library concentration; 72 h.

**Q.** Which cell count does the source give for COc1cc2c(Oc3ccc4[nH]c(C)cc4c3F)ncnc2cc1OCCCN1CCCC1 [cediranib] + N#Cc1c(O)c2c(-c3ccc(-c4ccccc4O)cc3)csc2[nH]c1=O [A769662] (first compound 2 µM, partner dose 10 µM) here?
**A.** 87.2%

**Q.** For CC(C)(C)c1cnc(CSc2cnc(NC(=O)C3CCNCC3)s2)o1 + CN(C)S(=O)(=O)c1ccc2c(c1)/C(=C/c1cc3c([nH]1)CCCC3)C(=O)N2 [SU6656] (first compound 0.05 µM, partner dose 2 µM), which cell count is on record?
**A.** 58%

**Q.** Which cell count does the source give for COc1cc2c(Oc3ccc4[nH]c(C)cc4c3F)ncnc2cc1OCCCN1CCCC1 [cediranib] + COc1ccc(COc2ccc(Cc3cnc(N)nc3N)cc2OC)cc1 [GW2580] (first compound 2 µM, partner dose 5 µM) here?
**A.** 101%

**Q.** CCCCCCCCc1ccc(CCC(N)(CO)CO)cc1 [fingolimod] + OCCn1cc(-c2cnc3nnn(Cc4ccc5ncccc5c4)c3n2)cn1 [PF04217903] (first compound 10 µM, partner dose 5 µM) was tested. Which cell count did it give?
**A.** 73.3%

**Q.** For NC(=O)c1ccc(N(C(N)=O)c2c(F)cccc2F)nc1-c1ccc(F)cc1F + Clc1ccc(Nc2nnc(Cc3ccncc3)c3ccccc23)cc1 [vatalanib] (first compound 2 µM, partner dose 10 µM), which cell count is on record?
**A.** 106%

**Q.** How did the cell count turn out when CCc1ccc(CCOc2ccc(CC3SC(=O)NC3=O)cc2)nc1 (stereo not drawn) [pioglitazone] + CC(C)CCN1c2nc(Nc3cc(F)c(O)c(F)c3)ncc2N(C)C(=O)C1C [BID1870] (first compound 10 µM, partner dose 1 µM) was run?
**A.** 74%

**Q.** Cc1ccc(NC(=O)c2cccc(N(C)C)c2)cc1NC(=O)c1ccc(O)cc1 + CN(C)S(=O)(=O)c1ccc2c(c1)/C(=C/c1cc3c([nH]1)CCCC3)C(=O)N2 [SU6656] (first compound 10 µM, partner dose 2 µM) was tested. Which cell count did it give?
**A.** 64.1%

**Q.** For NC(=O)c1ccc(N(C(N)=O)c2c(F)cccc2F)nc1-c1ccc(F)cc1F + Cc1cc(N2CCOCC2)cc2[nH]c(-c3c(NC[C@@H](O)c4cccc(Cl)c4)cc[nH]c3=O)nc12 [BMS536924] (first compound 2 µM, partner dose 1 µM), which cell count is on record?
**A.** 105%

**Q.** Cc1ccc(NC(=O)c2cccc(N(C)C)c2)cc1NC(=O)c1ccc(O)cc1 + CCCCCCCCCCCC1=C(O)C(=O)C=C(O)C1=O [Embelin] (first compound 10 µM, partner dose 6 µM) was tested. Which cell count did it give?
**A.** 88.3%

**Q.** CN(NC(=O)CC(=O)NN(C)C(=S)c1ccccc1)C(=S)c1ccccc1 + Cn1cc(/C=C2\C(=O)Nc3cccnc32)c2ccccc21 [GW441756] (first compound 0.03 µM, partner dose 2 µM) was tested. Which cell count did it give?
**A.** 92.7%

**Q.** How did the cell count turn out when CCCCCCCCc1ccc(CCC(N)(CO)CO)cc1 [fingolimod] + O=C(O)[C@@H]1[O][Sb](=[O])([O][Sb]2(=[O])[O][C@H]([C@H](O)CO)[C@H](O)[C@H](C(=O)O)[O]2)[O][C@H]([C@H](O)CO)[C@@H]1O [stibogluconate] (first compound 10 µM, partner dose 10 µM) was run?
**A.** 19%

**Q.** With Cc1ccc(NC(=O)c2cccc(N(C)C)c2)cc1NC(=O)c1ccc(O)cc1 + COc1cc(N2CCC(N3CCN(C)CC3)CC2)ccc1Nc1ncc(Cl)c(Nc2ccccc2S(=O)(=O)C(C)C)n1 [NVP-TAE684] (first compound 10 µM, partner dose 0.4 µM) as the compound, how does the cell count read?
**A.** 98.9%

**Q.** Which cell count does the source give for COc1cc2c(Oc3ccc4[nH]c(C)cc4c3F)ncnc2cc1OCCCN1CCCC1 [cediranib] + COc1cc(N2CCC(N3CCN(C)CC3)CC2)ccc1Nc1ncc(Cl)c(Nc2ccccc2S(=O)(=O)C(C)C)n1 [NVP-TAE684] (first compound 2 µM, partner dose 0.4 µM) here?
**A.** 73%

**Q.** Which cell count does the source give for COc1cc2c(Oc3ccc4[nH]c(C)cc4c3F)ncnc2cc1OCCCN1CCCC1 [cediranib] + Cn1cc(/C=C2\C(=O)Nc3cccnc32)c2ccccc21 [GW441756] (first compound 2 µM, partner dose 2 µM) here?
**A.** 81.9%

**Q.** COc1cc2c(Oc3ccc4[nH]c(C)cc4c3F)ncnc2cc1OCCCN1CCCC1 [cediranib] + Oc1cc(-c2nc(-c3ccccc3)[nH]c2-c2ccncc2)ccc1Cl [L779450] (first compound 2 µM, partner dose 1 µM) was tested. Which cell count did it give?
**A.** 57.8%

**Q.** Which cell count does the source give for NC(=O)c1ccc(N(C(N)=O)c2c(F)cccc2F)nc1-c1ccc(F)cc1F + Cc1nc(Nc2ncc(C(=O)Nc3c(C)cccc3Cl)s2)cc(N2CCN(CCO)CC2)n1 [dasatanib] (first compound 2 µM, partner dose 0.02 µM) here?
**A.** 79.9%

**Q.** CC(C)(C)c1cnc(CSc2cnc(NC(=O)C3CCNCC3)s2)o1 + c1cc(-c2cnn3cc(-c4ccc(OCCN5CCCCC5)cc4)cnc23)ccn1 [Dorsomorphin] (first compound 0.05 µM, partner dose 2 µM) was tested. Which cell count did it give?
**A.** 21.9%

**Q.** For CC(C)(C)c1cnc(CSc2cnc(NC(=O)C3CCNCC3)s2)o1 + C[C@@H]1CCN(C(=O)CC#N)C[C@@H]1N(C)c1ncnc2[nH]ccc12 [CP690550] (first compound 0.05 µM, partner dose 5 µM), which cell count is on record?
**A.** 60.4%

**Q.** With CC(C)(C)c1cnc(CSc2cnc(NC(=O)C3CCNCC3)s2)o1 + Oc1nc(-c2ccc(C(F)(F)F)cc2)nc2c1CSCC2 [XAV939] (first compound 0.05 µM, partner dose 10 µM) as the compound, how does the cell count read?
**A.** 51.8%

**Q.** For NC(=O)c1ccc(N(C(N)=O)c2c(F)cccc2F)nc1-c1ccc(F)cc1F + C=C(c1ccc(C(=O)O)cc1)c1cc2c(cc1C)C(C)(C)CCC2(C)C [Bexarotene] (first compound 2 µM, partner dose 10 µM), which cell count is on record?
**A.** 86.5%

**Q.** CCc1ccc(CCOc2ccc(CC3SC(=O)NC3=O)cc2)nc1 (stereo not drawn) [pioglitazone] + N#Cc1c(O)c2c(-c3ccc(-c4ccccc4O)cc3)csc2[nH]c1=O [A769662] (first compound 10 µM, partner dose 10 µM) was tested. Which cell count did it give?
**A.** 134%

**Q.** CC(C)(C)c1cnc(CSc2cnc(NC(=O)C3CCNCC3)s2)o1 + Cc1cc([N+](=O)[O-])ccc1NS(=O)(=O)c1cc(Cl)ccc1Cl [FH535] (first compound 0.05 µM, partner dose 5 µM) was tested. Which cell count did it give?
**A.** 69.9%

**Q.** With NC(=O)c1ccc(N(C(N)=O)c2c(F)cccc2F)nc1-c1ccc(F)cc1F + CN(c1ncccc1CNc1nc(Nc2ccc3c(c2)CC(=O)N3)ncc1C(F)(F)F)S(C)(=O)=O [PF562271] (first compound 2 µM, partner dose 0.4 µM) as the compound, how does the cell count read?
**A.** 85.7%

**Q.** Which cell count does the source give for Cc1ccc(NC(=O)c2cccc(N(C)C)c2)cc1NC(=O)c1ccc(O)cc1 + Cc1cc(N2CCOCC2)cc2[nH]c(-c3c(NC[C@@H](O)c4cccc(Cl)c4)cc[nH]c3=O)nc12 [BMS536924] (first compound 10 µM, partner dose 1 µM) here?
**A.** 107%
